Results on 84 molecules are retold here after PubChem BioAssay AID1346428 (National Center for Advancing Translational Sciences (NCATS), 2018).

In all, about 48,000 compounds went through this assay and about 1,200 (2.5%) were called active. Inconclusive results (about 2%) are left out.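 The calls were made as follows: active = activation of at least 60% and not above a set upper limit (about 1 call in 100 departs from these limits); inconclusive = activation of 40% to 60%, or above that upper limit; inactive = activation under 40%.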 Some of the results follow.

The assay addresses Probable G-protein coupled receptor 32 (Homo sapiens) (UniProt O75388). The assay can be described thus: qHTS for Agonists of Human Resolvin D1 Receptor DRV1. The conditions noted are these: CHO-K1 GPR32 beta-arrestin PathHunter luminescence, 90 min; at 76.9 µM; stronger effect = higher value; zero percent set by DMSO-only wells. The text has this: Endogenous resolution of inflammation is known to be transduced through various GPCRs and their natural mediators of lipid nature. Resolvin D1 (RvD1) is one of the active players in resolution of acute inflammation through regulation of anti-inflammatory pathways; it is known to enhance phagocytosis of human macrophages, limits neutrophils infiltration, etc. […] The search for GPR32-activating small molecules with anti-inflammatory effects similar to its natural omega-3 derivative ligand in order to use them as research tools for further studies of inflammation and its resolution was the goal of this screening project. For primary screening assay, we used CHO-K1 GPR32 beta-arrestin cell line (DiscoveRx, #93-0321C2A) and the PathHunter(R) beta-Arrestin Assay (DiscoveRx) which measures recruitment of beta-arrestin to the GPR32 and generates chemiluminescent signal. These engineered cells stably transfected with GPR32 co-express GPR32-fused small 42-amino acid fragment of beta-Gal called ProLinktrade mark, and […] -tagged beta-Arrestin fusion protein. When GPR32 is activated by a ligand, it stimulates binding of beta -Arrestin to ProLink-tagged GPR32, and two parts of beta-Gal complement forming a functional enzyme. Upon substrate (PathHunter(R) Detection reagent) addition, beta-Gal hydrolyzes it and generates a chemiluminescent signal.
Sequence of UniProt O75388 (O75388 whole entry, looked up): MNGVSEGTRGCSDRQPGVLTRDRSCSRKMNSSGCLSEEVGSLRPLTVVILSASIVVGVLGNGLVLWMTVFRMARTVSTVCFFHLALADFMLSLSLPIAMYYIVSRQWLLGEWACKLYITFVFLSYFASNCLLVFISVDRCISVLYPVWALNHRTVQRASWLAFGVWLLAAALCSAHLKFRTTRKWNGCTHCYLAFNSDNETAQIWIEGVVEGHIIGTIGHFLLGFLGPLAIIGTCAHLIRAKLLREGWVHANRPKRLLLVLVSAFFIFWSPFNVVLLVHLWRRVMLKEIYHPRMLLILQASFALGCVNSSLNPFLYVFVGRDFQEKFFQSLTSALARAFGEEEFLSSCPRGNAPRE
The cells were thawed and plated in thawing media containing F-12 HAM (Invitrogen, #11765-054), 10% FBS (Invitrogen, #10082), 1x Glutamine, and 1x Pen/Strep onto the 175-mm flask for 24 hours. Then, thawing media was replaced with Growth media which contains 800microg/mL Geneticin (Invitrogen, #10131) and 300microg/mL Hygromycin B (Invitrogen, #10687) in addition to described above. For the assay, the cells were harvested at ~80% confluent stage with Cell Dissociation buffer (Gibco, #13151), and seeded at 2,500 cells/ 3microL/well in assay media (PathHunter(R) Cell Plating Reagent, DiscoverX, #93-0563R1B) using MultiDrop Combi dispenser (Thermo Scientific, Logan, UT) onto white solid bottom tissue culture-treated 1536-well plates (Greiner # 789173-F) and allowed to attach overnight at 37 degrees C, 95% humidity, 5% CO2, . Next, 23nL/well of compound solutions in DMSO were added with a Pin Tool (Kalypsis, San Diego, CA) to the assay plates. As the basal control (EC0), 23 nL/well of DMSO was used on each plate. The cells were incubated in the presence of compounds or DMSO for 90 minutes at 37 degrees C, 5% CO2. Subsequently, 1.5microL/well of PathHunter(R) Detection Reagent prepared per the manufacturer's instructions was added to the assay plates with BioRAPTR FRDtrade mark dispenser (Beckman Coulter, San Francisco, CA) and incubated for 1 hour at ambient temperature prior to the measurement of the luminescent signal on ViewLux(R) uHTS Microplate Imager (Perkin Elmer, Waltham, MA).
(In general: qHTS replaces the single test concentration by a dilution series.)
Regarding `COCCNc1ccc(-c2nc(-c3ccncc3)no2)cc1[N+](=O)[O-]`, the activation is inactive: -16.8%.
The result for `Cc1cccc(CSc2nc3c(c(=O)[nH]2)CCC3)c1` reads inactive: 24.2%; that for `O=C(Nc1ccc(F)cc1F)c1cccc2c1C(=O)N(C1CCCCC1)C2`, inactive: -2.57%; that for `Cn1cnc2c(NCc3ccccc3)nc(NCCO)nc21`, inactive: -9.6%.
The result for `COc1ccc(S(=O)(=O)NCc2cccn2Cc2cccc(C)c2)cc1Cl` reads inactive: 3.43%; that for `CNC(=O)c1ccc2nc(CCc3ccccc3)oc2c1`, inactive: -7.05%; that for `CCc1ccc(C2CC(=O)c3c([nH]c(C(=O)OC4CCC(C)CC4)c3C)C2)cc1` (centres undefined), inactive: -5.64%.
For `CCc1cccc(C)c1NC(=O)C(CC)n1nc(C)c2c(C)n(-c3ccccc3)nc2c1=O` (centres undefined), the activation is inactive: -13.7%.
The result for `COc1ccc(-c2nc(SCC(=O)Nc3ccccc3)c(-c3ccc(F)cc3)[nH]2)cc1OC` reads inactive: -24.9%; that for `COc1ccc(OC)c(S(=O)(=O)N2Cc3ccccc3CC2C(=O)Nc2ccc(C)cc2C)c1` (centres undefined), inactive: -14.7%.
With `CCS(=O)(=O)N1CCc2cc(C(=O)N3CCN(c4ccc(OC)cc4)CC3)ccc21`, the activation was inactive: -3.17%.
As for `COc1ccc(-c2cc(C(F)(F)F)nc(SCC(=O)N3CCCCC3)n2)cc1OC`, the figure is inactive: -1.36%; as for `Cc1ccc(N2CC(C(=O)NCCS(=O)(=O)N3CCN(c4ccccc4F)CC3)CC2=O)cc1` (centres undefined), inactive: -18.8%.
For the molecule `Cc1ccc(NC(=O)CSc2nc3ccc(Br)cc3[nH]2)c(C)c1`, the activation was inactive: 1.05%.
The result for `COc1ccc(S(=O)(=O)N(CC(=O)Nc2ccc(F)c(Cl)c2)c2ccc(C)cc2)cc1OC` reads inactive: -18.5%; that for `O=C(COc1ccc(F)cc1)Nc1nnc(S(=O)(=O)N2CCc3ccccc32)s1`, inactive: 16%; that for `Cc1nc2c3ccccc3nc(NNC(=O)CCC(=O)N3CCN(c4cccc(Cl)c4)CC3)n2n1`, inactive: -21.1%.
The result for `CCOc1ccc(N(Cc2ccccc2)C(=O)c2nc(SCC)ncc2Cl)cc1` reads inactive: -33.4%; that for `Cc1cccc(NC(=O)CSc2nc3ccccc3nc2N2CCC(C)CC2)c1`, inactive: 7.68%.
As for `CC1=C(c2ccc(C(C)C)cc2)S(=O)(=O)NC1=NCc1ccccc1C`, the figure is inactive: 21.1%.
For `CN(C)CCN(C(=O)c1ccco1)c1nc2c(F)cc(F)cc2s1`, the activation was inactive: 31.3%.
The result for `CC1CCN(C(=O)CSc2c3c(nc4ccc(Cl)cc24)CCCC3)CC1` reads inactive: -18.6%.
As for `COc1cccc2c1C(=O)c1c(O)c3c(c(O)c1C2=O)C[C@@](O)(C(=O)CO)C[C@@H]3O[C@H]1C[C@H](N)[C@H](O)[C@H](C)O1`, the figure is inactive: -38.6%; as for `O=C(Nc1ccc(OC(F)(F)F)cc1)C1CCN(S(=O)(=O)c2ccc3[nH]c(=O)ccc3c2)CC1`, inactive: -2.87%; as for `Cc1ccc(Nc2cc(C)nc(-n3nc(C)cc3C)n2)cc1`, inactive: -33.4%.
The result for `O=C(NC1CCCCC1)c1ccc2c(c1)N(Cc1cccc(F)c1)C(=O)c1ccccc1S2` reads inactive: -18.1%.
For the molecule `Cc1ccc(-c2noc(CNC(=O)COc3cc(C)c(Br)c(C)c3)n2)cc1`, the activation was inactive: -14.9%.
As for `CCOCCc1nnc(NC(=O)C(=O)c2cc(C)n(-c3cccc(C)c3)c2C)s1`, the figure is inactive: -2.45%; as for `Cn1cnc(S(=O)(=O)N2CCC(C(=O)Nc3ccc(F)cc3F)CC2)c1`, inactive: -6.55%; as for `CCOc1ccc(CNC(=O)c2ccc3c(c2)sc2nc(-c4ccccc4)cn23)cc1`, inactive: -12.9%.
With `O=C(NC1CCCCC1)c1ccc2c(c1)sc1nc(-c3ccc(F)cc3)cn12`, the activation was inactive: 8.18%.
The result for `Cc1ccc(-n2nc(C(=O)N3CCN(c4ccc(F)cc4)CC3)c(=O)n(C)c2=O)cc1` reads inactive: 0.396%; that for `COc1ccc2nc(NC(=O)c3nc(S(=O)(=O)Cc4ccccc4F)ncc3Cl)sc2c1`, inactive: -15.4%.
The result for `Cc1ccc(C)c(N2CCN(c3nccn4nc(-c5ccc(Br)cc5)cc34)CC2)c1` reads inactive: 0.963%; that for `Cc1ccc(Cl)cc1NC(=O)C(NS(=O)(=O)c1cccc2nsnc12)c1ccccc1` (centres undefined), inactive: -27.3%; that for `COc1ccc(NC(=O)C2CCCN(S(=O)(=O)c3ccc(Cl)cc3)C2)cc1` (centres undefined), inactive: 2.13%.
Turning to `Cc1nc2nc(NC(=O)c3ccc(F)cc3)[nH]n2c(=O)c1Cc1ccccc1`, the activation is inactive: 11.4%.
As for `COc1cc(C2c3c(oc4ccccc4c3=O)C(=O)N2c2nc(C)c(C)s2)ccc1O` (centres undefined), the activation was inactive: -8.57%.
As for `O=C(COCc1cc(-c2cccs2)on1)NCc1ccccc1Cl`, the activation is inactive: -9.69%.
The result for `Cc1cccn2c(=O)c(/C=C(\C#N)c3nc4ccccc4s3)c(Oc3ccc(Br)cc3)nc12` reads inactive: 12.2%; that for `Cn1c(=O)oc2cc(S(=O)(=O)CCC(=O)NCCc3ccccc3)ccc21`, inactive: -14.1%.
As for `Cc1ccccc1NC(=O)Nc1ccc2nc(N3CCN(C)CC3)cc(C)c2c1`, the figure is inactive: 30.7%; as for `CC(=O)c1cc(-c2ccc(F)cc2)n(CC(=O)NC(C)c2ccccc2)c1C` (centres undefined), inactive: -23%.
The result for `Cc1c(C(=O)OC2CCCCC2)[nH]c2c1C(=O)CC(c1ccccc1Cl)C2` (centres undefined) reads inactive: 4.35%.
`O=C(NCc1ccccc1F)C1CCN(Cc2cc3ccccc3n2Cc2cccc(Cl)c2)CC1`: the activation was inactive: -54.5%.
The result for `NCCNC(=O)c1ccc(Cl)cn1` reads inactive: -18%; that for `Cc1cc(C)n(-c2nnc(Nc3ccc(C(C)C)cc3)c3ccccc23)n1`, inactive: -14.7%; that for `CC(=O)c1ccc(NC(=O)C2=CC(c3cccs3)=NS(=O)(=O)N2C)cc1`, inactive: 0.578%.
As for `COc1cccc(C(=O)NC(=O)Nc2ccc(-n3nc(C(F)(F)F)cc3C(F)(F)F)cc2)c1`, the figure is inactive: -9.72%; as for `COc1ccc(CNCc2ccc3c(c2)n(C)c(=O)n3C)cc1`, inactive: 1.95%.
As for `Cc1ccc2nc(-c3ccc(NC(=O)C(F)(F)F)cc3)sc2c1`, the figure is inactive: -6.8%; as for `COc1cc(Nc2nc(SCc3cccc(Cl)c3)nc3ccccc23)cc(OC)c1`, inactive: -30.4%; as for `Fc1ccc(Nc2c3c(nc4nncn24)CCC3)cc1`, inactive: -5.32%.
Consider `COc1cccc2c1[C@@H]1CN(CCCCn3c(=O)[nH]c4c(sc5ncc(-c6ccccc6)nc54)c3=O)C[C@@H]1CO2`, for which the activation was inactive: -5.41%.
The result for `Cc1cccc(NC(=O)CN2C(=O)COc3ccc(S(=O)(=O)N4CCC(C)CC4)cc32)c1C` reads inactive: -16.8%.
As for `CCN(CC)CCCNC(=O)c1nn(-c2ccc(OC)c(Cl)c2)c(=O)c2c1c1ccccc1n2C`, the figure is inactive: 4.78%; as for `CCOc1ccc(NC(=O)CCS(=O)(=O)c2ccc(Br)s2)cc1`, inactive: 12.8%; as for `COc1ccc(NC(=O)CSc2nnc3scc(-c4ccc(Cl)cc4)n23)cc1`, inactive: -0.549%.
As for `CCOC(=O)c1c(C)c(-c2ccccc2)n(CC(=O)Nc2cccc(F)c2)c1C`, the figure is inactive: 40%.
With `COC(=O)c1sccc1S(=O)(=O)N(CC(=O)NCc1ccccc1)c1ccc(C)c(C)c1`, the activation was inactive: -2.68%.
As for `Cn1nnnc1SCCNCc1ccc(OCc2ccccc2)cc1`, the figure is inactive: 8.61%; as for `O=C(Nc1noc2ccccc12)c1c(F)cccc1F`, inactive: -5.49%; as for `Cc1ccc(S(=O)(=O)N(CC(=O)N2CCc3ccccc3C2)c2ccc(C)c(C)c2)cc1`, inactive: -9.67%.
The result for `Cc1ccc(CNC(=O)Cn2c(=O)n(-c3ccc(C)c(F)c3)c(=O)c3sc4ccccc4c32)cc1` reads inactive: -4.11%; that for `CCc1ccc(CNC(=O)C2CCCN(c3nn4cc(-c5ccc(F)cc5)nc4s3)C2)cc1` (centres undefined), inactive: -10%; that for `O=C(Nc1cc(F)ccc1F)c1ccc2c(c1)nnn2C1CCCC1`, inactive: 38.9%.
On to `CCOc1ccc(-c2nc3c(C#N)c[nH]n3c2NC2CCCCC2)cc1`, for which the activation was inactive: -26.5%.
The result for `Cc1cccc(-c2nc(CCNC(=O)c3ccccc3Br)cs2)c1` reads inactive: 2.96%; that for `CCOC(=O)c1ccccc1NC(=O)N1CCCN(S(=O)(=O)c2ccc3c(ccn3CC)c2)CC1`, inactive: -2.51%; that for `Cc1nn(CC(=O)NCc2ccccc2Cl)c(=O)c2cccn12`, inactive: 12.4%.
The result for `CCCC(=O)Nc1cc(C(=O)NCc2ccc(OC)cc2)ccc1S(=O)(=O)c1ccc(Cl)cc1` reads inactive: -4.74%.
The result for `CC1(C)CO[C@@H](CC(=O)O)CN1` reads inactive: -8.49%; that for `CCOC(=O)C1CCN(C(=O)C2CCN(c3nnc(C)c4c(C)n(-c5ccccc5)nc34)CC2)CC1`, inactive: -5.55%; that for `COc1ccc(-c2cc(OC(=O)c3ccc(F)cc3)c3c(C)oc(C)c3c(=O)c2)cc1OC`, inactive: -16.2%.
`CC(=O)Oc1ccc(C)cc1`: the activation is inactive: -5.86%.
As for `COc1ccc(NC(=O)C2CCCN(S(=O)(=O)c3c(C)n[nH]c3C)C2)cc1OC` (centres undefined), the figure is inactive: -0.588%; as for `Cc1ccc(Cc2c(C)nn(-c3nc(C)c(C(=O)N4CCCCC4C)s3)c2C)cc1` (centres undefined), inactive: -1.8%.
The result for `COc1ccc(-c2noc(CSc3nnc(-c4ccccc4)n3-c3ccc(F)cc3)n2)c(OC)c1` reads inactive: -12.5%; that for `Cc1cccc(NC(=O)CN2c3ccccc3S(=O)(=O)c3ccccc32)c1C`, inactive: 7.64%; that for `CCc1nn(CC(=O)NCc2ccc(OC)cc2OC)c(=O)c2cc3c(OC)cccc3n12`, inactive: 6.03%.
Consider `CCC(=O)N1CCc2cc(S(=O)(=O)NC(C(=O)NCCc3ccc(Cl)cc3)C(C)C)ccc21` (centres undefined), for which the activation was inactive: -3.97%.
As for `COc1ccc(N2CCN(C(=O)c3ccc(NC(=O)c4nsc5ccccc45)cc3)CC2)cc1`, the figure is inactive: -21.7%; as for `O=C(/C=C\c1ccc2c(c1)OCO2)NC1CC(=O)N(c2ccc(F)cc2)C1` (centres undefined), inactive: 2.01%.
On to `Oc1cccc(-c2c3nc(c(-c4cccc(O)c4)c4ccc([nH]4)c(-c4cccc(O)c4)c4nc(c(-c5cccc(O)c5)c5ccc2[nH]5)CC4)C=C3)c1`, for which the activation is inactive: -15.4%.
